Measurements as given in the supplement of paper PMC3334620.
Whole data set: some 33,000 sequences, median “E-score (-0.5 to 0.5)” near -0.035, cut for the highest 2% near 0.35. The list shows a part of the results.

molecular target: T1, Pdr3 (UniProt P33200); assay: PBM E-score (8-mer binding enrichment) (E-score (-0.5 to 0.5)); higher = stronger / more preferred TF binding; most listed sequences are background and not binding sites; conditions: protein concentration: 200 nM; construct: GST-full length
T1 sequence: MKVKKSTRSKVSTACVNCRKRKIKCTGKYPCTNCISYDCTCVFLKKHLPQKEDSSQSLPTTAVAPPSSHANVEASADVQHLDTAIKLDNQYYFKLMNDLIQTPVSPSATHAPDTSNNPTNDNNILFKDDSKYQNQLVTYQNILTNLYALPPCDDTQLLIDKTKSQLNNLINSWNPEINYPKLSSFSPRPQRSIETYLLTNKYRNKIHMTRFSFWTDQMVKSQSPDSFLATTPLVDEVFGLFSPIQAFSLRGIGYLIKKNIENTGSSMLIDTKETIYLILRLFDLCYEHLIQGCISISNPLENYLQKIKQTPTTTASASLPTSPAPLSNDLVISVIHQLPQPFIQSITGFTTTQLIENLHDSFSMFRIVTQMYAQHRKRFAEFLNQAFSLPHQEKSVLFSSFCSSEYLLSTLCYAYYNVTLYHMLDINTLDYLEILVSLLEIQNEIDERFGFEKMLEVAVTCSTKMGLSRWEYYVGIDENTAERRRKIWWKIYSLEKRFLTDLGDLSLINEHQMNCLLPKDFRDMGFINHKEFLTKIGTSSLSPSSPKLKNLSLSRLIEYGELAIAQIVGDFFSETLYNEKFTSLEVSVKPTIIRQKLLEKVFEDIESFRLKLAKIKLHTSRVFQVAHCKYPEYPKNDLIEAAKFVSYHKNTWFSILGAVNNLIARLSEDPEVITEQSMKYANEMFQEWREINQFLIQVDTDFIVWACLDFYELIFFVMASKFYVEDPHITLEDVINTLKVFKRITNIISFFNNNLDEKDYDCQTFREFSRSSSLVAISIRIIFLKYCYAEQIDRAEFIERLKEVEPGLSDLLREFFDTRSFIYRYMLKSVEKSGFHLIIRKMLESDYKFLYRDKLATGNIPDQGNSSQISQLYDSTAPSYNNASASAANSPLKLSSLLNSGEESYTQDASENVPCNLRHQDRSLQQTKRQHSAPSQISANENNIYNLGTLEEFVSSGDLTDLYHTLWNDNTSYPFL
Procedure, shortened: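 Each ungapped eight-base word and its reverse complement, pooled, received an E-score from the Universal PBM Analysis Suite. Underlying scans, normalised with masliner, recorded fluorescent anti-GST bound to GST-tagged yeast transcription factors. These were applied at about 100-200 nM to universal all-10-mer Agilent arrays double-stranded by primer extension.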

| Sequence | PBM E-score |
| --- | --- |
| CTCCACGC | -0.165 |
| CCCTAGTA | -0.0527 |
| CATGGTGA | -0.149 |
| GCGTCCCC | -0.159 |
| AGGGTGGC | -0.099 |
| CGCTCGAG | 0.0754 |
| CTACTCCA | -0.162 |
| GACTGAGA | -0.16 |
| ACTCGCCT | -0.0619 |
| GGACGCAC | 0.0958 |
| GTAGAATA | -0.017 |
| TCCACGCA | -0.174 |
| ACGTGACG | -0.0262 |
| CTAGCAAC | -0.0643 |
| CACGGAAA | 0.449 |
| ATCACAAT | -0.0706 |
| TAGATGGA | -0.233 |
| GAGTCCGC | 0.248 |
| AAGCCAGA | -0.0207 |
| AACCTAAT | -0.0203 |
| ACTACCGA | -0.0714 |
| ATTCCGCG | 0.479 |
| AATATGAA | 0.146 |
| CTGCCTGA | 0.0159 |

| Sequence | PBM E-score |
| --- | --- |
| CAGCTCGG | 0.255 |
| ACACGAAT | 0.0887 |
| GTATCGGA | 0.326 |
| AATTCAAA | -0.121 |
| ACCAAGGG | -0.172 |
| GGGTGTAA | -0.0157 |
| AGGGTGCC | -0.244 |
| GGTCGCGA | 0.201 |
| ATAGTCAA | -0.151 |
| GTGACATA | 0.0765 |
| CTCCAGAG | -0.0543 |
| CCTCCTAG | -0.0995 |
| AGGACTGG | -0.184 |
| CCACAGCC | -0.0745 |
| CCCAGTCC | 0.0107 |
| CCCACTGA | -0.0507 |
| CACAAAGG | -0.09 |
| AGCAGACA | -0.21 |
| ACGGACAT | 0.351 |
| GTGCTTAA | -0.0262 |
| CCAGAAGG | -0.0321 |
| ACATTTTC | 0.203 |
| GACCTCCC | 0.0331 |
| TAGGATAA | -0.0443 |

| Sequence | PBM E-score |
| --- | --- |
| CGCTAACC | -0.00491 |
| ATCGTCAC | -0.129 |
| TCGGGGCA | 0.151 |
| TCATCGGA | 0.279 |
| ACCTAATA | 0.0374 |
| GGACATGA | 0.185 |
| ATCCTAAA | -0.297 |
| ACAACTAA | 0.0577 |
| GCAAGTCA | -0.0335 |
| ACTGACAA | -0.0515 |
| TAGCGACA | -0.171 |
| CACCAGAG | -0.137 |
| AGTTTTAG | -0.128 |
| GTTACTTA | -0.0658 |
| GCGCCCGA | 0.214 |
| AAGACGCA | -0.105 |
| AGGAAGAC | -0.246 |
| ACACGATG | -0.116 |
| GGTATAAC | -0.0726 |
| ACGCCTCA | -0.143 |
| ATCGGCGC | 0.178 |
| GCATTAAC | 0.103 |
| AAATAAGG | 0.0971 |
| AGCTCCAC | 0.0117 |
